# Laboratory results from the supplement of paper PMC8728848.
# The list shows a part of the results.
# B1: Cel5A (Cellvibrio mixtus), A0A266Q9Z0 (protein)
# chain: TSVAGCSGVTAWNSTAVYTGGNEVVRNGVKYQAKWWTQGQDPVTNSSADGVWANKGQC
# Assays:
# Assay in all cases: glycan array binding signal (z-score within array); higher = stronger binding
# Conditions in all cases: glycan notation: IUPAC condensed, linker removed
# [1] = molecular target: Glc(b1-4)Glc(b1-4)Glc(b1-4)Glc(b1-4)Glc
# In short: (§1)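 Arrays were curated from the Consortium for Functional Glycomics database, 3228 in total, and kept only where the protein sequence was available. Binding is expressed as a within-array Z-score. This score was averaged across arrays of the same protein sequence at different concentrations or buffers and across linkers, and negative values can be read as non-binding.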
# [2] = molecular target: Glc(b1-4)Glc(b1-4)Glc(b1-4)Glc(b1-4)Glc(b1-4)Glc
# In short: as §1
# [3] = molecular target: Glc(b1-4)Glc(b1-4)Glc(b1-4)Glc(b1-4)Glc(b1-4)Glc(b1-4)Glc
# In short: as §1
# [4] = molecular target: Glc(b1-4)Glc(b1-4)Glc(b1-4)Glc(b1-4)Glc(b1-4)Glc(b1-4)Glc(b1-4)Glc
# In short: as §1
# [5] = molecular target: Glc(b1-4)Glc(b1-4)Glc(b1-4)Glc(b1-4)Glc(b1-4)Glc(b1-4)Glc(b1-4)Glc(b1-4)Glc
# In short: as §1
# [6] = molecular target: Glc(b1-4)Glc(b1-4)Glc(b1-4)Glc(b1-4)Glc(b1-4)Glc(b1-4)Glc(b1-4)Glc(b1-4)Glc(b1-4)Glc
# In short: as §1
# [7] = molecular target: Glc(b1-4)Glc(b1-4)Glc(b1-4)Glc(b1-4)Glc(b1-4)Glc(b1-4)Glc(b1-4)Glc(b1-4)Glc(b1-4)Glc(b1-4)Glc
# In short: as §1
# [8] = molecular target: Glc(b1-4)Glc(b1-4)Glc(b1-4)Glc(b1-4)Glc(b1-4)Glc(b1-4)Glc(b1-4)Glc(b1-4)Glc(b1-4)Glc(b1-4)Glc(b1-4)Glc
# In short: as §1
# [9] = molecular target: Glc(b1-4)Glc(b1-4)Glc(b1-4)Glc(b1-4)Glc(b1-4)Glc(b1-4)Glc(b1-4)Glc(b1-4)Glc(b1-4)Glc(b1-4)Glc(b1-4)Glc(b1-4)Glc
# In short: as §1
# Glc(b1-6)Glc = molecular target: Glc(b1-6)Glc
# In short: as §1
# Glc(b1-6)Glc(b1-6)Glc = molecular target: Glc(b1-6)Glc(b1-6)Glc
# In short: as §1
# [10] = molecular target: Glc(b1-6)Glc(b1-6)Glc(b1-6)Glc
# In short: as §1
# [11] = molecular target: Glc(b1-6)Glc(b1-6)Glc(b1-6)Glc(b1-6)Glc
# In short: as §1
# [12] = molecular target: Glc(b1-6)Glc(b1-6)Glc(b1-6)Glc(b1-6)Glc(b1-6)Glc
# In short: as §1
# [13] = molecular target: Glc(b1-6)Glc(b1-6)Glc(b1-6)Glc(b1-6)Glc(b1-6)Glc(b1-6)Glc
# In short: as §1
# [14] = molecular target: Glc(b1-6)Glc(b1-6)Glc(b1-6)Glc(b1-6)Glc(b1-6)Glc(b1-6)Glc(b1-6)Glc
# In short: as §1
# [15] = molecular target: Glc(b1-6)Glc(b1-6)Glc(b1-6)Glc(b1-6)Glc(b1-6)Glc(b1-6)Glc(b1-6)Glc(b1-6)Glc
# In short: as §1
# [16] = molecular target: Glc(b1-6)Glc(b1-6)Glc(b1-6)Glc(b1-6)Glc(b1-6)Glc(b1-6)Glc(b1-6)Glc(b1-6)Glc(b1-6)Glc
# In short: as §1
# [17] = molecular target: Glc(b1-6)Glc(b1-6)Glc(b1-6)Glc(b1-6)Glc(b1-6)Glc(b1-6)Glc(b1-6)Glc(b1-6)Glc(b1-6)Glc(b1-6)Glc
# In short: as §1
# [18] = molecular target: Glc(b1-6)Glc(b1-6)Glc(b1-6)Glc(b1-6)Glc(b1-6)Glc(b1-6)Glc(b1-6)Glc(b1-6)Glc(b1-6)Glc(b1-6)Glc(b1-6)Glc(b1-6)Glc(b1-6)Glc(b1-6)Glc
# In short: as §1
# [19] = molecular target: Man(b1-4)Man(b1-4)Man(b1-4)Man
# In short: as §1
# [20] = molecular target: Man(b1-4)Man(b1-4)Man(b1-4)Man(b1-4)Man
# In short: as §1
# [21] = molecular target: Man(b1-4)Man(b1-4)Man(b1-4)Man(b1-4)Man(b1-4)Man
# In short: as §1
# [22] = molecular target: Xyl(b1-4)Xyl(b1-4)Xyl(b1-4)Xyl(b1-4)Xyl
# In short: as §1
# [23] = molecular target: Xyl(b1-4)Xyl(b1-4)Xyl(b1-4)Xyl(b1-4)Xyl(b1-4)Xyl
# In short: as §1
binder,measurement,setting,value
B1,glycan array binding signal (z-score),[1],0.113
same,glycan array binding signal (z-score),[2],-0.176
same,glycan array binding signal (z-score),[3],0.429
same,glycan array binding signal (z-score),[4],0.589
same,glycan array binding signal (z-score),[5],1.64
same,glycan array binding signal (z-score),[6],1.49
same,glycan array binding signal (z-score),[7],0.954
same,glycan array binding signal (z-score),[8],0.533
same,glycan array binding signal (z-score),[9],0.785
same,glycan array binding signal (z-score),Glc(b1-6)Glc,-0.52
same,glycan array binding signal (z-score),Glc(b1-6)Glc(b1-6)Glc,-0.261
same,glycan array binding signal (z-score),[10],0.013
same,glycan array binding signal (z-score),[11],0.234
same,glycan array binding signal (z-score),[12],0.329
same,glycan array binding signal (z-score),[13],0.052
same,glycan array binding signal (z-score),[14],-0.107
same,glycan array binding signal (z-score),[15],-0.24
same,glycan array binding signal (z-score),[16],-0.113
same,glycan array binding signal (z-score),[17],-0.553
same,glycan array binding signal (z-score),[18],-0.119
same,glycan array binding signal (z-score),[19],-0.854
same,glycan array binding signal (z-score),[20],-0.556
same,glycan array binding signal (z-score),[21],-0.777
same,glycan array binding signal (z-score),[22],-0.71
same,glycan array binding signal (z-score),[23],-0.672
